Test results as given in paper PMC10726135.
The other results are listed elsewhere or left out. At the low end of the ranking the order means little. Measured with an extract: partners may take part in the binding.

The sequences below were run against T1, HNF4alpha2 (COS-7 nuclear extract) (UniProt P41235) (assay: protein-binding microarray). Conditions: COS-7 nuclear extract on double-stranded Agilent 4x180k PBM; binding buffer, salt, pH and temperature not given; high values mean tight binding; double strand, one strand shown; sequences stand for … in …GCCTAGGGAGATTAGAGTATCGGTCGA.
T1 sequence: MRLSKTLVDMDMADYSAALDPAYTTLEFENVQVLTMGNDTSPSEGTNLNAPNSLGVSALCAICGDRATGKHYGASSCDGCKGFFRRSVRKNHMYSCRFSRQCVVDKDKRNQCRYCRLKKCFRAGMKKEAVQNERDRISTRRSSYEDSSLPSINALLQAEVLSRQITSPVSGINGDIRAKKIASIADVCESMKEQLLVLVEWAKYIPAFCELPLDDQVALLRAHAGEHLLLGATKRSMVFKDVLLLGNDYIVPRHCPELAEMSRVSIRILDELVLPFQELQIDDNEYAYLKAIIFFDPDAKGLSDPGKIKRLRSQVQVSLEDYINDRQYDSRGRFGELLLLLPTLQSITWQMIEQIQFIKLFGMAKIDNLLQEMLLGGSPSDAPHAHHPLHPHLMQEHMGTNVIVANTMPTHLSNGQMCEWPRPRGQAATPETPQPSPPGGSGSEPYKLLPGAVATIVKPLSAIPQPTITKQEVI

| Sequence | binding signal (log2 normalized intensity) |
| --- | --- |
| ACCCTTGAGCTAAGTCCCAAGGGATAGGCA | -1.09 |
| GGTTAAAGTCCAATCTTCTGGCCCCATCTA | 4.04 |
| GTATGTCTGGGATTTGAAGGAGCAGAATAA | 0.12 |
| AAGCCCTACAGCCCACAATTGCATGTTCAA | -1.14 |
| ACTTTGGACCCACTGCAGGATTGGAGATCT | 0.999 |
| GCTAAGAAGACCAACAGGTGAAGACATGCT | -1.08 |
| TCAGTGTACTTAAAAATGCCTTTCATCTTT | 0.854 |
| TGTAATTGCTTAAACCTAGCTACTAGCCAT | -1.07 |
| TGTTTGGGGCAGGCAGGGGATGAGATCTGA | -1.01 |
| CAGATGAAAGGCGGCAACTTCTTCAGCCTA | -1.2 |
| TTCAGCAAACAAAGGCACTTCTCTCTCCAA | -0.92 |
| CACTTGCTATTTGCATCAGCAGAGGACAGA | 0.684 |
| GCTGAGGAAGACTTCATTCAGGTAGCAGGC | -1.12 |
| GCGCTGCTCGCAAGCAGAACCTTGGAGGCG | -0.94 |
| TGGCCTGATTTGACAAGGCAGAGGTGATTT | 0.51 |
| CTTTGATCAGCAATGGAGAGTGATCAGATA | 0.44 |
| CCCTCTGACCAGAGACATTCCAACCCTGCC | -0.84 |
| CAAACCCAGTTTGCATTTTCATGGACAGAG | 1.05 |
| GCTGTTTTCTCCAGTGCCCTTAGGGGCCGC | 0.843 |
| TCCTTCCCCTTTTGTGTTTGTCCCTTTCTT | 2.62 |
| GGTTCTCAGACCACCAGCTGCTTCGGCCAG | -1.12 |
| CGCCCCCCAGCGGAAGTCCAGTGGTGTCTT | 3.33 |
| GGATGGATCAAAGGAAACTGCTTGGGCCCC | -1.18 |
| TAGGGCTCGGCATTCAGACAGACCCAGGGG | -1.14 |

| Sequence | binding signal (log2 normalized intensity) |
| --- | --- |
| GCAGAAGCAGGCCTCGGGCCTGCGAGGTTA | -1.13 |
| TGAAGCCATCCTCCCACCTCAGCCTCTTGA | 1.73 |
| GTTTAACTGACCCAGGGAGAAAGGTCAGGG | 2.86 |
| CTTGTGTAATAACGAGACCTTAGCCCTGAA | -0.833 |
| CAACCGTCCAGAGTCCACGTACTTAACTAC | 1.51 |
| CCTTGGGTCTGTAATCTCACAACTCAGAAG | 0.23 |
| TCTGGGCAAAGTTCACCAGGAAGCAAGACA | 3.23 |
| TTGTACTCAGTATGTGCTGACTGACTCCTG | 0.992 |
| AATTTCAGTATTAATGTCAAACTGATCAGA | 1.85 |
| TCCTGATCCCTGAGGTCGGGGCCTGGTCTG | 0.683 |
| TATCTCCTATGAGCCAAACACCATGCTAGG | -1.12 |
| AAAGGGAGCATATGTATGTCAGAGTATGTG | 1.54 |
| GGACCCGCGCAGCCAATAGGCGAGGACGCA | -1.09 |
| CCCATCCAAAGGTCAGCAATCTCAAAGACT | 2.36 |
| TTATTTGAACACAGTTCGAACAGTTGGCCA | 1.5 |
| AGGCCTGAAATTTGGCCTGCTGAGCCCAAT | -1.15 |
| AACCTTTGCCCCTGGAGGGAGACATTATCT | 4.27 |
| CAACTCAACCCTGGCATAGCATGCCACGAT | -1 |
| AATGGAGCAAAGGTCATCCTGGGCTACCGA | 4.68 |
| CCAGTCCAGATATAGGGGAGGTCCTAAAGA | -1.06 |
| TCTGCAAGTGAAAAAAATCCTTTTATTTAT | 0.141 |
| GAAAAGGGAGTAAAGGTCACGCAGGCCACC | 3.5 |
| GCTCTTGGCTAAGACAGGGGCTATTTCTGA | -1.16 |
| TGGCAAGGCAGCCTCAGCCACACGCCCATC | -1.09 |

| Sequence | binding signal (log2 normalized intensity) |
| --- | --- |
| CCTATGTCCCCCGACCCGCCCGACTACAAC | 5.15 |
| AAAGAGCAGATGTGTCTTTATAACAGACTG | -0.299 |
| GCAAACCAGATAAGACTATCTCATGACAGA | -1.14 |
| TCCCACTCCCCTCCTCCAGATGGGCTCATG | 3.86 |
| CTTATTTATCTTCACATTCCATCATCACGG | 1.29 |
| TTTCTCTTATAGCTCAACCCCCAAAACTGC | 4.75 |
| ACAACATACCACAATAAAGTATACAAGGGA | -1.05 |
| GGCGCCGCTCTGAGTGACCTTTCACCCGCG | 6.81 |
| CTTGAAGCAGAAAACCACTGTGCTCTGAAA | -1.17 |
| CCTTCAAGTCTGAGATGAAGAGGCCAGGGG | -1.11 |
| CTCTACCGTCCTCCCCCACGACAGAATTGA | 4.57 |
| AGTTGTTTGCAGAGGGAAAGCGAGAGAGCC | -0.96 |
| AAAGATTGCAGCAAGGAATTCAACCCTTGT | 1.23 |
| AGAAGCAAATGAAAAGAATATCTCAGCAGC | -1.24 |
| GTGAAGGTCACAATTTCCAGGAGTATGTGT | 1.5 |
| CTCCCACCTCAGCCTCTTGAGTAGCTGGGA | -1.17 |
| TTTTCAATCTTATTTTTACTATGTGGCATT | 1.8 |
| AGTTGGTGTTTTCCGGGGGCGGTTTTTCCA | 1.42 |
| AACAACTGCCACTTATTGTGTTATGTACTT | 1.57 |
| CCCTTCGCTAGAGCAAATACAGCACTCAAA | -1.22 |
| AAAAAATGGGCAAAGGACAATAATGAATAA | -1.04 |
| AGCAGGTTATCTAATGGAGAGGATGGGGAC | -1.13 |
| GGGGGAGGGAGATAGAGAAAGAAAAAGTAC | -0.948 |
| CTGCATTCCAGCTCAATCAAGGACTGGGCT | -0.876 |
